# Source: PubChem BioAssay AID686978 (National Center for Advancing Translational Sciences (NCATS), 2013)
# Out of some 420,000 compounds screened, about 64,000 (15%) were called active. Inconclusive results, whose numbers are uncertain, are shown with a selection of clear calls. Calls come from the whole dose curve; as a rule, active = well fitted inhibition curve with a large enough effect; inconclusive = small, poorly fitted or top-dose-only effect; inactive = flat fitted curve, though single readings scatter. No potency is given beside an inconclusive call; the fits are too rough.
# Test: qHTS for Inhibitors of human tyrosyl-DNA phosphodiesterase 1 (TDP1): qHTS in cells in absence of CPT; note: nearly all actives have a fitted effect of over 55% in size
# Conditions: DT40 Tdp1-/- hTDP1 cells, no CPT, ATP luminescence, 48 h; activity change, negative = growth inhibition: at 46.2 µM (top of the series) unless noted
# In short: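 A cellular qHTS used chicken DT40 cells lacking endogenous Tdp1 but carrying stably transfected human TDP1. Compounds were applied without camptothecin, and cell growth kinetics were judged by ATP-dependent luminescence after ≥48 hr.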
# % is set by controls: 0 for no effect and ±100 for the full control effect; potency is the fitted concentration of half-maximal effect; tags give direction and shape of the fitted curve.
Structure (SMILES),Potency,"activity change, negative = growth inhibition"
O=C1CC(c2ccc(Cl)cc2)SC(N(c2ccccc2)c2ccccc2)=N1 (configuration not stated),"inconclusive [inhibitor, single point]",
COCc1nnc(NC(=O)c2c(-c3c(Cl)cccc3Cl)noc2C)s1,"inconclusive [inhibitor, single point]",
CN(c1ccccc1)S(=O)(=O)c1cccc(NC(=O)CN2C(=O)NC3(CCCC3)C2=O)c1,"inconclusive [inhibitor, single point]",
CC1=C(c2ccc(Cl)cc2)S(=O)(=O)N=C1N1CCN(c2cccc(C)c2)C(C)C1 (configuration not stated),active: 5.17 µM,
COc1cccc(NC(=O)CN(C)C(=O)c2ccc3c(c2)CC(c2ccccc2)OC3=O)c1 (configuration not stated),"inconclusive [inhibitor, single point]",
N#Cc1sc2nc(-c3cccs3)cc(-c3ccc(F)cc3)c2c1N,,inactive: -1.42%
CCCCNC(=O)c1ccc(-c2nc(CS(=O)(=O)c3ccc(C)cc3)c(C)o2)cc1,"inconclusive [inhibitor, single point]",
Cc1cc(C(=O)N(C)C2CCCCC2)no1,,inactive: 13.9%
COc1ccc(CCN(C(=O)c2snc(C(N)=O)c2N)C(C)C(=O)NC2CCCCC2)cc1OC (configuration not stated),"inconclusive [inhibitor, full curve, poor fit]",
O=C(CSc1nnnn1-c1ccc(F)cc1)Nc1ccc(N2CCOCC2)c(Cl)c1,"inconclusive [inhibitor, single point]",
Cc1cc(F)ccc1C(O)c1ncc(-c2ccc3ccccc3c2)[nH]1 (configuration not stated),"inconclusive [inhibitor, single point]",
Cc1cc(-c2ccc(NC(=O)[C@@H]3CCCC[C@@H]3C(=O)O)c(C)c2)ccc1NC(=O)[C@@H]1CCCC[C@@H]1C(=O)O,"inconclusive [inhibitor, single point]",
Cc1ccc(N2CC(c3nnc(Cc4ccc(F)cc4Cl)o3)CC2=O)cc1 (configuration not stated),"inconclusive [inhibitor, single point]",
COc1cccc(OC)c1C(=O)Nn1c(-c2cccc(C)c2)nc2ccccc2c1=O,"inconclusive [inhibitor, single point]",
O=c1onc(-c2ccccc2)n1Cc1ccc([N+](=O)[O-])cc1,,inactive: -22.8%
COc1cc(/C=C2/C(=N)N3C=CSC3=NC2=O)ccc1OCCCOc1cc(C)ccc1C,"inconclusive [inhibitor, single point]",
C=CCc1ccccc1OCC(O)CN1CCN(c2ccc(OC)cc2)CC1 (configuration not stated),"inconclusive [inhibitor, single point]",
